Measurements as given in PubChem BioAssay AID504332 (National Center for Advancing Translational Sciences (NCATS), 2011).
Screen size: about 350,000 compounds; about 31,000 (8.9%) were called active. Inconclusive results, whose numbers are uncertain, are shown with a selection of clear calls. Calls follow the shape of the dose curve; as a rule, active = well fitted inhibition curve with a large enough effect; inconclusive = small, poorly fitted or top-dose-only effect; inactive = no such curve, though single readings can be large or run the other way. Where the call is inconclusive, the potency comes from a doubtful curve fit. More than one record can exist for a structure, and the calls need not agree.

Target: Histone-lysine N-methyltransferase EHMT2 (Homo sapiens) (UniProt Q96KQ7)
Experiment: qHTS Assay for Inhibitors of Histone Lysine Methyltransferase G9a; also: nearly all actives have a fitted effect of over 75% in size
Settings: G9a H3K9 monomethylation, AlphaScreen, 2 h; activity, negative = inhibition: at 59 µM (top of the series) unless noted
How it was run: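 Compounds were preincubated with 20 nM G9a for 15 min, after which biotinylated H3K9 peptide (500 nM) and SAM (20 uM) started a 2 h room-temperature reaction. Monomethylated product was quantified by antibody-based AlphaScreen chemiluminescence.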
% is scaled to controls: 0 for no effect and ±100 for the full control effect; potency is read from the fitted curve at half-maximal effect; tags tell the direction and shape of the fitted curve.

UniProt Q96KQ7, sequence (Q96KQ7 whole entry, looked up): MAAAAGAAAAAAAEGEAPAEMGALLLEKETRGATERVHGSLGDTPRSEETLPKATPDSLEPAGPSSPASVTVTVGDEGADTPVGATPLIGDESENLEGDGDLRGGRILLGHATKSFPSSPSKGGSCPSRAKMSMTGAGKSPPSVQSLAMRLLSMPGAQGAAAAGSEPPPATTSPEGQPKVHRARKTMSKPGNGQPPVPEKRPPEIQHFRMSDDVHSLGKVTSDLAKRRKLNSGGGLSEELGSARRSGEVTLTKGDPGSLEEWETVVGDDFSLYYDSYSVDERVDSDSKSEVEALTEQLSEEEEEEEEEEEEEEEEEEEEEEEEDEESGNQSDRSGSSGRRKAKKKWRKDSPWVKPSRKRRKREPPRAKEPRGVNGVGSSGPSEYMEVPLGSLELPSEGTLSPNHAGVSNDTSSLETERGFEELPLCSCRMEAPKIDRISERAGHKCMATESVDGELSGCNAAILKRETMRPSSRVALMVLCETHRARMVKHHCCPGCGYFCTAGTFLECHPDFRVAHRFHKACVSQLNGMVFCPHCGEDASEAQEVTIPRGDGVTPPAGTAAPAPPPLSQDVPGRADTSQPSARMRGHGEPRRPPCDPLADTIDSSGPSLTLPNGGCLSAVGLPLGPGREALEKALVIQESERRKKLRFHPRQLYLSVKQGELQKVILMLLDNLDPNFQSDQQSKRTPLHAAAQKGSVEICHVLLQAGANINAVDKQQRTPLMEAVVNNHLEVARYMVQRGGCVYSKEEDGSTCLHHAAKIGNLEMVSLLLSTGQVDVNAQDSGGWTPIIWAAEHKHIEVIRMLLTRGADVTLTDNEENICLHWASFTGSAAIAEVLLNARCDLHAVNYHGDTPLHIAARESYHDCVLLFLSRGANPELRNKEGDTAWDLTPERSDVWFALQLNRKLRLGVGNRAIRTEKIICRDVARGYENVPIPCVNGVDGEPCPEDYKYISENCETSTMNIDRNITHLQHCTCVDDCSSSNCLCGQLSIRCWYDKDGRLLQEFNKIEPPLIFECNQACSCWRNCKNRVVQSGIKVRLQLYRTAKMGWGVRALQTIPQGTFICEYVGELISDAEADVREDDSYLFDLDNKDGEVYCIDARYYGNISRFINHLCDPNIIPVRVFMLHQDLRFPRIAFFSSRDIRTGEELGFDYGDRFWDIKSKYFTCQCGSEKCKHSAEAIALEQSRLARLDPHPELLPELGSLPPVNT

Structure (SMILES) | activity, negative = inhibition | Potency
COc1ccc(CN(CC2CCCO2)S(=O)(=O)c2ccc(-n3cnnn3)c(OC)c2)cc1 (configuration not stated) | inactive: -2.51% [at 102 µM] | –
CC(=O)OCC(CCn1cnc2cnc(N)nc21)COC(C)=O | – | inactive
NNc1nncc2ccccc12 | – | active: 7.94 µM
O=C(Nc1nc(-c2cc3ccccc3oc2=O)cs1)c1ccco1 | – | active: 35.5 µM
C=CCNC(=S)NNC(=O)COc1ccc(Cl)cc1Cl | – | active: 10 µM
COc1ccc(C)c2sc(NNC(=O)COc3ccccc3)nc12 | – | inconclusive: 50.1 µM [inhibitor, partial curve, poor fit]
Cc1cc2c(cc3c(SCc4cccc(Cl)c4)nnc(C)n32)o1 | – | active: 7.08 µM
Cc1ccc(C(=O)N/C(=C\c2cn(C)c3ccccc23)C(=O)N2CCN(C)CC2)cc1 | – | active: 79.4 µM
COc1cccc(N2CCN(C(=O)c3ccc4c(Cl)c5c(nc4c3)CCCC5)CC2)c1 | – | inconclusive: 14.1 µM [inhibitor, partial curve, poor fit]
CCc1ccccc1N(CC(=O)NCCSCc1ccco1)S(C)(=O)=O | – | inconclusive: 79.4 µM [inhibitor, single point]
Cn1nnnc1SCC(=O)N1CCOCC1 | – | inconclusive: 39.8 µM [inhibitor, single point]
CCCS(=O)(=O)c1nc(S(=O)(=O)c2ccc(C)cc2)c(NCCCN2CCCC2=O)s1 | inactive: 22.2% [at 102 µM] | –
COc1cc(/C=N/N2C(C)CCCC2C)cc(OC)c1O (configuration not stated) | – | inconclusive: 1 µM [inhibitor, single point]
O=C1c2ccccc2C(O)(c2ncc[nH]2)N1CCc1ccccc1 (configuration not stated) | – | inconclusive: 8.91 µM [inhibitor, full curve, poor fit]
Cc1ccc(NC(=O)CSc2nnc(C)c(=O)n2N)c(C)c1 | – | active: 1.78 µM
N=C1SCC(=O)N1/N=C/c1ccccc1 | – | inconclusive: 39.8 µM [inhibitor, single point]
CCOc1cc(N2CCOCC2)c(OCC)cc1NC(=O)c1ccccc1C | – | inconclusive: 70.8 µM [inhibitor, single point]
CC(C)NC(=O)c1ccc(Cl)cc1Cl | inactive: -27.2% [at 102 µM] | –
CC(=O)c1ccc(NC(=O)CSc2nc3c(=O)n(C)c(=O)n(C)c3n2C)cc1 | inactive: -1.39% | –
CC#CCN1c2ccccc2[C@]23C[C@@H](C(=O)OC)N(C(=O)c4ccco4)C2=NC(C(=O)OC)=C(C(=O)OC)[C@H]13 | inactive: 1.75% | –
[C-]#[N+]c1cc(-c2ccncc2)c(C)[nH]c1=O | inactive: 17.7% | –
O=C(O)c1cccc(NC(=S)NC(NC(=O)c2ccccc2[N+](=O)[O-])C(Cl)(Cl)Cl)c1 (configuration not stated) | – | inconclusive: 50.1 µM [inhibitor, partial curve]
